Assay results as given in patent US9034877B2 (Wayne State University, priority 2009, dated 2015).
pEC50: −log10 of the molar value.

Molecular target: hD2 receptor (Homo sapiens, UniProt P14416)
Conditions: [35S]GTPγS, hD2 in CHO cells

Chain of UniProt P14416 (P14416 whole entry): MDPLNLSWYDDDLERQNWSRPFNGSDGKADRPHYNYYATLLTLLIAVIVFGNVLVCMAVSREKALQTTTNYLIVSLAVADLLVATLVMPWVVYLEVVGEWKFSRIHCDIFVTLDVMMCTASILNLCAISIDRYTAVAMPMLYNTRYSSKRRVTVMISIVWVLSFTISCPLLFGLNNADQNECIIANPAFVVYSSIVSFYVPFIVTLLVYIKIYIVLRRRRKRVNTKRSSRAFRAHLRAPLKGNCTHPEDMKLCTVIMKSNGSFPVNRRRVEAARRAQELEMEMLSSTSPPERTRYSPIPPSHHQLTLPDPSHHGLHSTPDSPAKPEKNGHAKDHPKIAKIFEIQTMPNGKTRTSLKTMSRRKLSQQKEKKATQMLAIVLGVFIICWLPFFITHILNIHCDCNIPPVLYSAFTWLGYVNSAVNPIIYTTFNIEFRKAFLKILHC

Structure (SMILES)	Agonism at D2 compared with dopamine	pEC50 (read-out: EC50, D2 receptor)
CCCN(CCN1CCN(C(=O)c2ccc3[nH]ccc3c2)CC1)[C@H]1CCc2c(O)cccc2C1 [Compound (−)-45, (S)-(4-{2-[(5-Hydroxy-1,2,3,4-tetrahydro-naphthalen-2-yl)-propyl-amino]-ethyl}-piperazin-1-yl)-(1H-indol-5-yl)-methanone]	full agonist activity	7.98
CCCN(CCN1CCN(c2ccnc3c(O)cccc23)CC1)C1CCc2ccc(O)cc2C1 (single isomer, unassigned; (+)) [(+)19a, (+)-4-(4-(2-((7-hydroxy-1,2,3,4-tetrahydronaphthalen-2-yl) (propyl)amino)ethyl)piperazin-1-yl)quinolin-8-ol]	full or near-complete agonism	–
CCCN(CCN1CCN(c2ccnc3c(O)cccc23)CC1)C1CCc2c(O)cccc2C1 (single isomer, unassigned; (-)) [Compound (−)19b, (−)-4-(4-(2-((5-hydroxy-1,2,3,4-tetrahydronaphthalen-2-yl) (propyl)amino)ethyl)piperazin-1-yl)quinolin-8-ol]	full or near-complete agonism	–
CCCN(CCC)CCc1cccc2c1CC(=O)N2 [ropinirole, reference compound]	full or near-complete agonism	–
